Measured values published in the RNAGym collection of RNA variant scans (doi:10.1073/pnas.2313332121).
Variants at the floor of the assay are shown more often than the library holds them.

B1: TPR 5TU (parent)
chain: GGAUCUUCUCGAUCUAACAAAAAAGACAAAUCUGCCACAAAGCUUGAGAGCAUCUUCGGAUGCAGAGGCGGCAGCCUUCGGUGGCGCGAUAGCGCCAACGUUCUCAACUAUGACACGCAAAACGCGUGCUCCGUUGAAUGGAGUUUAUCAUG

Variants of: B1
Assay: polymerase ribozyme fitness, log enrichment relative to wild type (log ratio); higher = more active; in vitro selection for triplet polymerase activity
Outline: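 Each subunit of a heterodimeric triplet polymerase ribozyme was mutagenized into a library by PCR, transcribed, and subjected to one round of in vitro selection, run in triplicate. Libraries were annealed with a biotinylated primer, the partner subunit and triplets, incubated frozen at −7 °C, and extended constructs were gel-excised, captured on streptavidin beads and recovered by RT-PCR. Input and output libraries were sequenced on Illumina, keeping genotypes with ≥10 input reads and ≥1 read per output. Fitness is log base 2 of genotype enrichment divided by wild-type enrichment, from inverse-variance-weighted replicate averages.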

Variant | polymerase ribozyme fitness (log ratio)
G11C A26U U146C | ≤ -4.2
G11C A28G U31A C76G C85U | ≤ -4.2
G11C A29U U78A C95U | ≤ -4.2
G11C A30U C95A C108G U148A | ≤ -4.2
G11C A40C C51G A52C C93U C103G | ≤ -4.2
G11C A40U C51U C85G A106G | ≤ -4.2
G11C A41C C95A U146G | -3.34
G11C A41C U44G A60U C87G | ≤ -4.2
G11C A41G C76U C93G A106G A122G C129A G141U | ≤ -4.2
G11C A41U A49C G83C A150C | ≤ -4.2
G11C A41U C75A C93U | ≤ -4.2
G11C A47G U53G C93G U111C A137C U146G | ≤ -4.2
G11C A49U G83A C95G A107C | ≤ -4.2
G11C A66C G86U C93U C108U G128U | ≤ -4.2
G11C A138C | ≤ -4.2
G11C C14A A16G C87U | ≤ -4.2
G11C C14A C93G A98U C99G A110C | ≤ -4.2
G11C C14G A21U U55A G68C U127G G133U A137C | ≤ -4.2
G11C C27U G92U | -2.73
G11C C27U U61A C72G U77G C85U A120U U148A | ≤ -4.2
G11C C35A A60C G81U C87G | ≤ -4.2
G11C C35G A52U C63A G94A C131U | ≤ -4.2
G11C C35G U45G G80U C85U A97U A107G | ≤ -4.2
G11C C36G C85G A115G | ≤ -4.2

Variant | polymerase ribozyme fitness (log ratio)
G11C C38U C76U U78G A97G G124U | ≤ -4.2
G11C C43A C85A U146A | ≤ -4.2
G11C C43U C69U A91C A137C | ≤ -4.2
G11C C43U C79G G84A C116A U145A | ≤ -4.2
G11C C54U G59U A60C U77G C85G U134A G141A | ≤ -4.2
G11C C57A A66U C87U C105G U148G | ≤ -4.2
G11C C57G U82A G83U G141U | -2.65
G11C C63U G83A A115U U135A U146C G152U | ≤ -4.2
G11C C72U U90C C93A U104A U127A | ≤ -4.2
G11C C85U A119G | -2.02
G11C G25U A52C C54U C95U A107G U144A | ≤ -4.2
G11C G34A C76U G86A G92C G128U G140U | ≤ -4.2
G11C G34C A52C C95U U144A | ≤ -4.2
G11C G34C G65U | ≤ -4.2
G11C G42U G48A U102C A110C | ≤ -4.2
G11C G50U U77G | ≤ -4.2
G11C G67C C93G C118U | ≤ -4.2
G11C G68U C85A G92C | ≤ -4.2
G11C G86A C96U A138C G140A | ≤ -4.2
G11C U15C A19C C35G G86U G126A G152A | ≤ -4.2
G11C U15G G59A G84U C105U U109G | ≤ -4.2
G11C U31C A37C A39C A119G A142C | ≤ -4.2
G11C U33A U44A G62A A91G G124U | ≤ -4.2
G11C U33G C38U A47C A49C G92A A97G U111G C118U G133U | -4.17

Variant | polymerase ribozyme fitness (log ratio)
G11C U45A C79G C96G C149G | ≤ -4.2
G11C U55A C76G G140U | ≤ -4.2
G11C U61A U77A C95A | ≤ -4.2
G11C U77A | ≤ -4.2
G11C U77C A91U A106G A115G | ≤ -4.2
G11C U90G C132G A138C G141U | ≤ -4.2
G11U A12G A30C C35A G80U C93A | ≤ -4.2
G11U A12G A40C G83U A89G A119G G140U | ≤ -4.2
G11U A12G A49C G50A C93A G124A | ≤ -4.2
G11U A12G U15A G58C G94U U151G | ≤ -4.2
G11U A12U A16C U55A C99A | ≤ -4.2
G11U A16U A17C G133C U134A | ≤ -4.2
G11U A16U A22U A29U G58A G92C C118U A119U U145A | ≤ -4.2
G11U A16U A52C G58C G65A C79A G83U C93U C118A | ≤ -4.2
G11U A17G G25U C32A G71C C87G A89G | ≤ -4.2
G11U A19G A26U A91G G92A U127C A138G | ≤ -4.2
G11U A19G G88U | ≤ -4.2
G11U A19U A39G C75U G94C A142C | ≤ -4.2
G11U A20C A107C | ≤ -4.2
G11U A20G A49G A52C C57A C79A C103G | ≤ -4.2
G11U A20U G50A A60C G67C G92C G143C U151A | ≤ -4.2
G11U A21C A29G C32A C87A C103G C118U U134G U146G | ≤ -4.2
G11U A21U A24C C93U C105U | ≤ -4.2
G11U A21U G74C G92U | ≤ -4.2

Variant | polymerase ribozyme fitness (log ratio)
G11U A22C C35U U53G C69A C93A C103U | ≤ -4.2
G11U A22C G25A G50C C54U C96U A106G U130G A137G | ≤ -4.2
G11U A23C U55C C57A U82A G86A G117U | ≤ -4.2
G11U A23U A37C A64C C76A C132U | ≤ -4.2
G11U A23U C32U C57U G58A U77C C93G C96U A97U G100U A110U G143C | ≤ -4.2
G11U A23U G68A U130G U135C | ≤ -4.2
G11U A26C G48A A60C G80A C85G A120C G143C | ≤ -4.2
G11U A26G A52G G81A G84A U135G G141A | ≤ -4.2
G11U A26U G42C G84A A89G G92A C131A U148A | ≤ -4.2
G11U A29C C54G U61A C95U | ≤ -4.2
G11U A29C U56A G81A G94U U104G A121C A137G U151A | ≤ -4.2
G11U A29U A49C U56A C87A C129U | ≤ -4.2
G11U A30U C35U C69U G83A A91C A98U | ≤ -4.2
G11U A39G A47G G83A A142G | ≤ -4.2
G11U A40C A52U G68C G84C A91G C118A C131U | ≤ -4.2
G11U A66U G88U A107U U135C | ≤ -4.2
G11U C14G A20G C27G A52U G80A A120U G141U U144G | ≤ -4.2
G11U C14G A26G U33G C57A C99G A120G | ≤ -4.2
G11U C14G G46A U55A C87U | ≤ -4.2
G11U C14U U31C A41G G86U C108A C125A | ≤ -4.2
G11U C18G C54A G88A C118A | ≤ -4.2
G11U C18U G84U | -3.2
G11U C32A G50A C116U A121U C132U U144G | ≤ -4.2
G11U C32U G50A G80A C103A | ≤ -4.2

Variant | polymerase ribozyme fitness (log ratio)
G11U C32U G50C G86C | ≤ -4.2
G11U C35U C51U U55G G59U G68A G80A G83A | ≤ -4.2
G11U C36G C95A | ≤ -4.2
G11U C38A A40C U53A G58A | -3.76
G11U C38A G92U G140C A147G G152C | ≤ -4.2
G11U C54A C87G A98G | ≤ -4.2
G11U C54A C93G C99G G141U | ≤ -4.2
G11U C69U U134C | -1.33
G11U C75U C79G C87U | ≤ -4.2
G11U C85U G112C U145A | ≤ -4.2
G11U G42A A73G G92A | ≤ -4.2
G11U G42C G68A C85U G128U C132G U139G U148A | ≤ -4.2
G11U G42U G68A G86U C95G A137C | ≤ -4.2
G11U G46A G83U A97C C116G | ≤ -4.2
G11U G50C U53G U56A G59C C95U | ≤ -4.2
G11U G50U G68A G84U C114U A115U G136A | ≤ -4.2
G11U G65C G92U G141A | ≤ -4.2
G11U G84A U90C A119G C125A | ≤ -4.2
G11U G86A C87A C103A G126A | ≤ -4.2
G11U G92A C95A | ≤ -4.2
G11U U15A A28C A49G C129G | ≤ -4.2
G11U U15A G46A G59U C75G C116G A121U | ≤ -4.2
G11U U15A G59C C93G G112C G141C | ≤ -4.2
G11U U15G A24G U56G C93U | ≤ -4.2

Variant | polymerase ribozyme fitness (log ratio)
G11U U15G A40C G71U C93U G124A A138G U145A C149A | ≤ -4.2
G11U U31C G50U G59A U61A C76A U139A A142C | ≤ -4.2
G11U U44A U56A C99U G124U | ≤ -4.2
G11U U45C C57G G59U A66U G94A | ≤ -4.2
G11U U61A C75A G94A G143A | ≤ -4.2
G11U U104G | -1.58
A12C A17G A40U A66G A73U G81C G94U A98G | ≤ -4.2
A12C A17G G48C G80C G84A G141A A142C | ≤ -4.2
A12C A17U A26U G58C C95U A107U | ≤ -4.2
A12C A19G G58U U61A | ≤ -4.2
A12C A19U C43G U55A U82A C93U C96U G141U | ≤ -4.2
A12C A19U G50U G62A G86A A107U | ≤ -4.2
A12C A20C A26G | ≤ -4.2
A12C A20C A26G C35U A40C U55C A73U C93G G94C | ≤ -4.2
A12C A21U A52C C54G C57A A73U G88C C99U G124A | ≤ -4.2
A12C A21U G25U C38A A40C A47G A137G | ≤ -4.2
A12C A22C A97G C99A A138C | ≤ -4.2
A12C A22G C32U G46C A52G | ≤ -4.2
A12C A23G C38U C75G G81A G133U | ≤ -4.2
A12C A23G G50U G83A | ≤ -4.2
A12C A23U G46C U77G G80U G133A | ≤ -4.2
A12C A24G A52C A60C | ≤ -4.2
A12C A24U U31A C54A C72U G86U A97C U146G | ≤ -4.2
A12C A28G A37U U45A C93U | ≤ -4.2

Variant | polymerase ribozyme fitness (log ratio)
A12C A28G U33A U55A A89U C95U C105A | ≤ -4.2
A12C A28U C54U G74C G92C G126U | ≤ -4.2
A12C A28U G83A G84U C85G U151A | ≤ -4.2
A12C A29U A39C G71A U148C | ≤ -4.2
A12C A29U A52G C85A U135G | ≤ -4.2
A12C A30G C63U U145G | ≤ -4.2
A12C A30U A41C A47C U55C C93U C96U | ≤ -4.2
A12C A37U G88A C93G C105U A106C | ≤ -4.2
A12C A39G A41U A47C C85U U146G | ≤ -4.2
A12C A39U G88C A115C G126A | ≤ -4.2
A12C A40C U55A A107G A142G | ≤ -4.2
A12C A40G C87U U101G | ≤ -4.2
A12C A41C A49C | ≤ -4.2
A12C A41G C87A A121G C123U G140A U146C C149G | ≤ -4.2
A12C A47G C87A G94U U144G U151A | ≤ -4.2
A12C A49U U82C C87A | ≤ -4.2
A12C A52C C87U A89C | -3.43
A12C A52G G74C C75A U127G | ≤ -4.2
A12C A60C U61A G83A A91U G117A G141U U146A | ≤ -4.2
A12C A64C C76U C85U G92A C118U G141C A147U | ≤ -4.2
A12C A113G A119U U145A | -3.25
A12C C14A A19U C35A C87G C95G U104G | ≤ -4.2
A12C C14A A30U A39C G58C G83C G124U | ≤ -4.2
